Test results reported in PubChem BioAssay AID652104 (National Center for Advancing Translational Sciences (NCATS), 2013).
In all, about 410,000 compounds went through this assay and about 7,200 (1.8%) were called active. This list was built around the results that the source calls inconclusive (neither active nor inactive); the mix of calls is not that of the screen. The call rests on the fitted dose curve; in most records, active means well fitted activation curve with a large enough effect; inconclusive means small, poorly fitted or top-dose-only effect, or another doubt; inactive means no such curve, though single readings can be large or run the other way. Where the call is inconclusive, the potency comes from a doubtful curve fit.

Test: qHTS of TDP-43 Inhibitors; further: nearly all actives have a fitted effect of over 50% in size; on growth rescue (activation): % of control where 0% means no effect
Settings: TDP-43 expressing yeast growth rescue, BacTiter-Glo, 24 h; growth rescue (activation): at 46.1 µM (top of the series) unless noted
Procedure, shortened: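 Cell-based yeast growth screen: TDP-43 expression induced in galactose, inoculum OD600=0.02 after raffinose pregrowth to mid-log. Read-out BacTiter-Glo luminescence at 24 hr, 30 deg C; inhibition of toxicity seen as signal increase.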
Potency means the concentration at half of the fitted maximal effect; tags describe the fitted curve by direction and shape.

Potency, inactive:
CCOc1cc(C(=O)Nc2ccc3oc(-c4ccc(CC)cc4)nc3c2)cc(OCC)c1OCC
Cc1ccc(NC(=O)c2ccccc2OCC(=O)c2ccc(F)cc2)cc1
C=C(Br)Cn1c(CCCC)nc2ccccc21
CCC(=O)N1CCc2cc(Br)cc(S(=O)(=O)N3CCCC(C(=O)O)C3)c21 (stereo not drawn)
CCCCN(Cc1ccccc1)C(=O)CN(C)S(=O)(=O)c1ccc2c(c1)c(=O)n(C)c(=O)n2C
Cc1cccc(C(=O)Nc2ccc(-c3nc4ccccc4s3)c(C)c2)c1
CCCCn1nnnc1SCC(=O)NCc1ccccc1
CCCCn1nnnc1C(c1ccccc1)N1CCN(C/C=C/c2ccccc2)CC1 (stereo not drawn)
CC(=O)c1cccc(-n2c(=O)c3c4c(sc3n(Cc3ccccc3Cl)c2=O)CN(C(C)=O)CC4)c1
COc1ccc2[nH]c3c(c2c1)CCN1C(=O)C(CC(=O)NCC24CC5CC(CC(C5)C2)C4)C[C@H](C(=O)N2CCOCC2)[C@@]31C (stereo partly drawn)
COc1ccc(CNC(=O)c2cc3ccccn3n2)c(OC)c1
CSc1oc(-c2ccc(F)cc2)nc1S(=O)(=O)c1ccccc1
COc1ccc(NC(=O)CSc2nnc(-c3cccs3)n2N)cc1S(N)(=O)=O
COc1ccc(Cl)cc1NC(=O)c1c(-c2ccccc2)noc1C

Potency, inconclusive:
COc1cc2c(cc1OC)CN(C(=O)CSC1=NCCS1)CC2 31.6 µM [activator, partial curve]
COc1cccc(C(=O)NC2CCCc3c2cnn3-c2cc(C)cc(C)c2)c1 (stereo not drawn) 31.6 µM [activator, single point]
O=S(=O)(Nc1cccc2ncccc12)c1cccs1 7.94 µM [activator, single point]
Cn1c(NC(=O)c2ccccc2)nc2ccccc21 15.8 µM [activator, single point]
CCOC(=O)c1sc(=S)n2c1[nH]c(=O)c1ccc(C(=O)OC)cc12 12.6 µM [activator, single point]
Cc1ccc(C)c(N2CCN(C(=O)CCS(=O)(=O)c3cccc4nonc34)CC2)c1 31.6 µM [activator, single point]
Cc1cccc(C(=O)OCC(=O)c2csc(N3CCCCC3)n2)c1[N+](=O)[O-] 20 µM [activator, partial curve, poor fit]
Cc1ccc(-c2nc3ncccc3o2)cc1NC(=O)COc1ccc(C(C)C)cc1 25.1 µM [activator, partial curve]
O=S(=O)(NCCSc1ccccn1)c1ccc(Cl)cc1 22.4 µM [activator, partial curve]
Cc1ccc2c(CC(=O)N3CCN(S(=O)(=O)c4ccccc4)CC3)coc2c1 35.5 µM [activator, single point]
COc1ccc(OCCSc2ccc(S(=O)(=O)N3CCCC3)cn2)cc1 31.6 µM [activator, partial curve]
Cc1ccc(C(=O)NC2CCC(C)CC2)s1 (stereo not drawn) 10 µM [activator, partial curve]
O=[N+]([O-])c1ccccc1S(=O)(=O)N1CCCC(C(F)(F)F)C1 (stereo not drawn) 15.8 µM [activator, partial curve]
COc1ccc(/C(N)=N/OC(=O)CCC2CCCC2)cc1OC 17.8 µM [activator, partial curve]
O=C(Cc1cc2ccccc2o1)NCc1ccc(F)cc1 35.5 µM [activator, single point]
COc1ccc(CN2C(=O)c3cccnc3C2=O)cc1S(=O)(=O)NC1CCCCC1C (stereo not drawn) 1 µM [activator, partial curve]
C[C@]12c3[nH]c4ccc(Cl)cc4c3CCN1C(=O)[C@@H](CC(=O)NCc1ccco1)C[C@@H]2C(=O)N1CCCCC1 35.5 µM [activator, partial curve, poor fit]
CCn1c(-c2cc(-c3ccc(OC(C)C)cc3)nc3ccccc23)n[nH]c1=S 14.1 µM [activator, single point]
CC(=O)Nc1cc(C(=O)NCc2ccccc2)ccc1Sc1ccc(C)cc1 2 µM [activator, partial curve]
Cc1[nH]n(-c2ccccc2)c(=O)c1C=NC1CCCCC1 12.6 µM [activator, partial curve]
O=C(NC1CCSc2ccccc21)c1ccc([N+](=O)[O-])cc1 (stereo not drawn) 17.8 µM [activator, single point]
C=CCOc1ccc(/C=N/NC(=O)c2cc3c(OC)cc(OC)cc3[nH]2)cc1 35.5 µM [activator, partial curve, poor fit]
CCOC(=O)C1=CCN(S(=O)(=O)c2ccccc2Cl)C1c1cccc(F)c1 (stereo not drawn) 22.4 µM [activator, single point]
Cc1ccc(N2CC(c3nnc(Cc4ccc(Cl)cc4)o3)CC2=O)cc1 (stereo not drawn) 35.5 µM [activator, partial curve]
COCCCNc1ncnc2c1c(-c1ccccc1)cn2-c1ccc(C)c(Cl)c1 6.31 µM [activator, partial curve]
COc1ccc(-c2cc(C(=O)NCc3cccc(Cl)c3)[nH]n2)c(C)c1 6.31 µM [activator, full curve, poor fit]
COc1ccc(OC)c(NC(=O)CN2C(=O)CC(c3ccco3)Sc3ccccc32)c1 (stereo not drawn) 22.4 µM [activator, single point]
C[C@@H]1C[C@H]2[C@@H]3CCC4=CC(=O)C=C[C@]4(C)[C@@]3(F)[C@@H](O)C[C@]2(C)[C@@]1(O)C(=O)CO 35.5 µM [activator, partial curve]
Cc1cccn2c(=O)c3cc(C(=O)N4CCCC(C)C4)sc3nc12 (stereo not drawn) 15.8 µM [activator, single point]
O=C(CN1C(=O)c2ccccc2S1(=O)=O)c1ccc(OC(F)F)cc1 14.1 µM [activator, partial curve]
CN(C)c1ccc(N=Nc2ccccc2C(=O)OCC(=O)N(C)c2ccccc2)cc1 11.2 µM [activator, partial curve]
O=C(N/N=C/c1cc([N+](=O)[O-])ccc1O)C1CC1 11.2 µM [activator, partial curve]
Cn1nc(C(=O)N2CCN(c3ccccc3)CC2)c2c1-c1ccccc1SC2 0.891 µM [activator, full curve]
CCCCOc1ccc(CNC(=O)Cn2ncn3c(cc4cc(F)ccc43)c2=O)cc1 0.355 µM [activator, full curve, poor fit]
CCOc1ccc(CNC(=O)c2ccc(Sc3ccc(C)cc3)c(NC(C)=O)c2)cc1OC 35.5 µM [activator, single point]
CC1CCCC(NC(=S)NC(=O)c2ccco2)C1C (stereo not drawn) 35.5 µM [activator, single point]
NC(=O)c1c(Nc2nc3c(F)cccc3s2)sc2c1CCCC2 31.6 µM [activator, single point]
CC(=O)c1cc(C)ccc1OC(=O)c1cccc2nc(C)oc12 14.1 µM [activator, single point]
COc1ccccc1C(=O)Nc1ccc(Oc2ncnc3sc(-c4ccccc4)cc23)cc1 6.31 µM [activator, partial curve]
Cc1c(F)cccc1NC(=O)C1CCCN1S(=O)(=O)c1ccc(F)cc1 (stereo not drawn) 35.5 µM [activator, single point]
CCN(CC)c1nc(Nc2ccccc2)nc(Oc2ccc(=O)n(C)n2)n1 10 µM [activator, partial curve, poor fit]
CCC(=O)NC(=S)Nc1ccccc1F 11.2 µM [activator, partial curve]
N#CC(C#N)=C1C=CC=CN1/C(=C\c1ccco1)C(=O)c1ccc(-c2ccccc2)cc1 3.55 µM [activator, partial curve]
CC(C)(C)OC(=O)N1CCC[C@H]1c1nnc(SC/C=C/c2ccccc2)o1 14.1 µM [activator, partial curve, poor fit]

Potency, active:
CC(C)c1ccccc1OCCNC(=O)c1cncc(Br)c1 20 µM
CCCNC(=O)c1noc2c1CCc1cc(OC)ccc1-2 12.6 µM
CSc1ccccc1NC(=O)COc1ccc(Cl)cc1C 15.8 µM
Brc1c(-c2ccccc2)nc2n1Cc1ccccc1-2 12.6 µM
Cc1nn2c(-c3ccccc3)ccnc2c1Br 20 µM
Cc1ccc(CC(=O)N(Cc2nc(-c3ccc(C)cc3)no2)C(C)C)cc1 25.1 µM
COc1ccc(C(=O)Sc2ccc(C)cc2)cc1OC 11.2 µM
O=S(=O)(NCCc1csc(-c2cccnc2)n1)c1ccc(F)cc1 14.1 µM
COc1ccc(S(=O)(=O)NCCc2csc(-c3ccc(F)cc3)n2)cc1 15.8 µM

Growth rescue (activation), inactive:
CCOc1ccc(OCC)c(NC(=O)c2cc(C)nc3c2c(C)nn3-c2cccc(Cl)c2C)c1 19.8% [at 9.22 µM]
